The source of these data is the supplement of paper PMC10037445.

Test [1] deals with RAW-Dual. Nature of the test: NF-kB SEAP reporter activity, fold change vs agonist alone; higher = enhanced NF-kB activity. The note with it: library stock concentration (final ~1000-fold dilution): 10 mM. A digest of the protocol: (§1)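 RAW-Dual macrophages (50,000 cells/well in DMEM, 384-well plates) received 50 nL of library stock by pin tool, then a PRR agonist 1 h later, and were kept at 37 °C, 5% CO2. After 20 hours, supernatant was read for IRF by QuantiLuc luminescence and for NF-κB by QuantiBlue absorbance at 620 nm. Reporter activity is fold change over agonist-alone wells. Cytotoxic wells had IncuCyte confluency below 70% of agonist controls in both mask sets.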

In test [2] the test system is RAW-Dual. Nature of the test: NF-kB SEAP reporter activity, fold change vs agonist alone; cytotoxicity flag (confluency mask): not cytotoxic; higher = enhanced NF-kB activity. The procedure, abridged: as §1
Test [3] has as its system RAW-Dual. The test is described as follows: NF-kB SEAP reporter activity, fold change vs agonist alone; cytotoxicity flag (confluency mask): cytotoxic (confluency <70% of control); higher = enhanced NF-kB activity. The procedure, abridged:
as §1

Setting [4] is: cytotoxicity flag (confluency mask): not cytotoxic, agonist: Imiquimod (TLR7) […].
Setting [5] is: cytotoxicity flag (confluency mask): not cytotoxic, agonist: MPLA (TLR4) […].
Setting [6] is: agonist: ODN 1826 (TLR9) 0.5 ug/mL.
Setting [7] is: agonist: Pam2CSK4 (TLR2/6) 0.1 ug/mL.
Setting [8] is: agonist: Pam3CSK4 (TLR2/1) 0.1 ug/mL.
The mark [9] stands for this setting: cytotoxicity flag (confluency mask): cytotoxic (confluency <70% of control), agonist: Imiquimod (TLR7) […].
[10] abbreviates: cytotoxicity flag (confluency mask): cytotoxic (confluency <70% of control), agonist: MPLA (TLR4) […].

Molecules are shown by their SMILES. Over roughly 2,900 compounds, “NF-kB SEAP reporter activity, fold change vs agonist alone” has its median near 0.99; the highest 2% begin near 2.6. The list shows a part of the results.

On to `CN(C)S(=O)(=O)c1ccc2c(c1)/C(=C/c1cc3c([nH]1)CCCC3)C(=O)N2`, for which the “NF-kB SEAP reporter activity” value in test [1] (setting [4]) amounted to 1.08; in test [1] (setting [5]) it was 0.662.
The like results for `O=C(O)CC(=O)C(=O)O` were, in that order, 0.891 and 1.04.
For `O=C(O)CC(=O)C(=O)O` (library stock concentration (final ~1000-fold dilution): 10 mM), the “NF-kB SEAP reporter activity” value in test [2] (agonist: LPS (TLR4) 0.1 ug/mL) amounted to 1.22; in test [2] (setting [6]), 0.938; in test [2] (setting [7]), 1.07; in test [2] (setting [8]), 0.964.
Consider `Cc1ccc(C2OC(CO)C(O)C(O)C2O)cc1Cc1ccc(-c2ccc(F)cc2)s1.Cc1ccc(C2OC(CO)C(O)C(O)C2O)cc1Cc1ccc(-c2ccc(F)cc2)s1.O` (stereo not drawn), for which the “NF-kB SEAP reporter activity” value amounted to 2.07 in test [1] (setting [9]) and 0.351 in test [1] (setting [10]).
As to `Cc1ccc(C2OC(CO)C(O)C(O)C2O)cc1Cc1ccc(-c2ccc(F)cc2)s1.Cc1ccc(C2OC(CO)C(O)C(O)C2O)cc1Cc1ccc(-c2ccc(F)cc2)s1.O` (stereo not drawn) (library stock concentration (final ~1000-fold dilution): 10 mM), the “NF-kB SEAP reporter activity” value in test [3] (agonist: LPS (TLR4) 0.1 ug/mL) was 0.276; in test [3] (setting [6]), 0.801; in test [3] (setting [7]), 1.01; in test [3] (setting [8]), 0.957.
The like results for `COc1ccc(Cl)c(Nc2nc3ccccc3nc2NS(=O)(=O)c2cccc(NC(=O)C(C)(C)N)c2)c1` (library stock concentration (final ~1000-fold dilution): 10 mM) were, in that order, 1.3, 0.767, 0.79 and 0.81.
As for `COc1ccc(Cl)c(Nc2nc3ccccc3nc2NS(=O)(=O)c2cccc(NC(=O)C(C)(C)N)c2)c1`, the “NF-kB SEAP reporter activity” value in test [1] (setting [9]) came out at 1.18; in test [1] (setting [10]), 1.19.
On to `COc1cc(-c2ncn(/C=C\C(=O)OC(C)C)n2)cc(C(F)(F)F)c1`, for which the results for the “NF-kB SEAP reporter activity” value in test [1] (setting [9]) and in test [1] (setting [10]) were 2.31 and 0.454, respectively.
Regarding `COc1cc(-c2ncn(/C=C\C(=O)OC(C)C)n2)cc(C(F)(F)F)c1` (library stock concentration (final ~1000-fold dilution): 10 mM), the “NF-kB SEAP reporter activity” value turned out to be 0.272 in test [3] (agonist: LPS (TLR4) 0.1 ug/mL), 0.99 in test [3] (setting [6]), 0.411 in test [3] (setting [7]) and 0.287 in test [3] (setting [8]).
The like results for `COc1ccc(-c2nc(N3CCOCC3)c3sc(CN(C)c4ncc(C(=O)NO)cn4)cc3n2)cn1` (library stock concentration (final ~1000-fold dilution): 10 mM) were, in that order, 4.34, 2.1, 1.3 and 1.6.
As for `COc1ccc(-c2nc(N3CCOCC3)c3sc(CN(C)c4ncc(C(=O)NO)cn4)cc3n2)cn1`, the figures for the “NF-kB SEAP reporter activity” value in test [1] (setting [9]) and in test [1] (setting [10]) were 2.88 and 2.66, respectively.
Turning to `O=C(Cc1ccccc1)Nc1nnc(CCSCCc2nnc(NC(=O)Cc3ccccc3)s2)s1`, the figures for the “NF-kB SEAP reporter activity” value in test [1] (setting [4]) and in test [1] (setting [5]) were 0.885 and 1.25, respectively.
Take `O=C(Cc1ccccc1)Nc1nnc(CCSCCc2nnc(NC(=O)Cc3ccccc3)s2)s1` (library stock concentration (final ~1000-fold dilution): 10 mM): the “NF-kB SEAP reporter activity” value turned out to be 1.04 in test [2] (agonist: LPS (TLR4) 0.1 ug/mL), 0.939 in test [2] (setting [6]), 0.585 in test [2] (setting [7]) and 0.733 in test [2] (setting [8]).
